Results as given in PubChem BioAssay (NCI).
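Values below derive from 48-hour exposures of cells grown in 96-well plates, with endpoints linearly interpolated between the two concentrations bracketing the appropriate inhibition level. At the GI50, growth is halved. TGI: total growth inhibition.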

Tested on: NCI-H322M lung
Assay: growth of human tumour cells (NCI), 48 h

SMILES | GI50 [nM] | TGI [µM]
Cc1ccc(C(=O)NN2C(=O)/C(=C/C=C/c3ccc([N+](=O)[O-])o3)SC2=S)cc1 | 2230 | 6.18
COc1cc2c(cc1OC)/C(=C\c1sc(Nc3ccc(O)cc3)nc1O)C(C(=O)O)=N2 | 696 | > 100
